Results on 306 variants are retold here after a collection of fitness landscapes (doi:10.1126/science.1257360).

First the molecules themselves.
B1: PhoQ; a variant is named by its letters at X, in order, P23837 (parent)
chain: MKKLLRLFFPLSLRVRFLLATAAVVLVLSLAYGMVALIGYSVSFDKTTFRLLRGESNLFYTLAKWENNKLHVELPENIDKQSPTMTLIYDENGQLLWAQRDVPWLMKMIQPDWLKSNGFHEIEADVNDTSLLLSGDHSIQQQLQEVREDDDDAEMTHSVAVNVYPATSRMPKLTIVVVDTIPVELKSSYMVWSWFIYVLSANLLLVIPLLWVAAWWSLRPIEALAKEVRELEEHNRELLNPATTRELTSLVRNLNRLLKSERERYDKYRTTLTDLTHSLKTPLXXLQXXLRSLRSEKMSVSDAEPVMLEQISRISQQIGYYLHRASMRGGTLLSRELHPVAPLLDNLTSALNKVYQRKGVNISLDISPEISFVGEQNDFVEVMGNVLDNACKYCLEFVEISARQTDEHLYIVVEDDGPGIPLSKREVIFDRGQRVDTLRPGQGVGLAVAREITEQYEGKIVAGESMLGGARMEVIFGRQHSAPKDE

This is one part of the list. A value given as a limit tells only on which side of the number the result lay.

The variants in this test derive from B1. As to the kind of experiment: enrichment ratio after two sorts for PhoP signalling (ratio (wild type AVST 3.29)); higher = more functional. Particulars: with PhoP (E. coli).
With LSDT, the enrichment ratio was ≤ 0.25.
For WPWR, the enrichment ratio was ≤ 0.25.
To ISQV belongs ≤ 0.25; to LPWN, ≤ 0.25.
Then GPPS, with ≤ 0.25; and VKRP, with ≤ 0.25; and AKEQ, with ≤ 0.25.
For the variant VCYM, the enrichment ratio was ≤ 0.25.
As for PVGV, the enrichment ratio is ≤ 0.25.
To QSQR belongs ≤ 0.25; to IKCA, ≤ 0.25; to MHMY, ≤ 0.25.
Then TCLV, with 9.44.
For GLSD, the enrichment ratio was ≤ 0.25.
To MCAA belongs 1.62; to EFIT, ≤ 0.25; to VPKS, ≤ 0.25.
Then PIQN, with ≤ 0.25.
Take IEIL: the enrichment ratio is ≤ 0.25.
On to QARC, for which the enrichment ratio was ≤ 0.25.
On to AYAD, for which the enrichment ratio was ≤ 0.25.
Then NSGI, with ≤ 0.25; and ERQE, with ≤ 0.25.
Then FLQM, with 2.26.
KNCF: the enrichment ratio is ≤ 0.25.
FEQF: the enrichment ratio was ≤ 0.25.
In the case of SKAC, the enrichment ratio came to 3.45.
As for FEVQ, the enrichment ratio was 6.04.
Then RNWI, with ≤ 0.25.
Then LVDP, with ≤ 0.25; and MQGP, with ≤ 0.25.
Turning to LLKA, the enrichment ratio was ≤ 0.25.
Then VKMI, with ≤ 0.25; and YAST, with ≤ 0.25.
To TERN belongs ≤ 0.25; to KYLI, ≤ 0.25; to QLCF, ≤ 0.25.
Then PMMG, with ≤ 0.25.
With AQKR, the enrichment ratio is ≤ 0.25.
Then LQNL, with ≤ 0.25.
To LCCY belongs ≤ 0.25; to VWTY, ≤ 0.25; to ANIE, ≤ 0.25.
Turning to LPFF, the enrichment ratio was ≤ 0.25.
In the case of PNPI, the enrichment ratio was ≤ 0.25.
On to QDIC, for which the enrichment ratio is ≤ 0.25.
Turning to AYNM, the enrichment ratio is ≤ 0.25.
To MLVA belongs ≤ 0.25; to FGNP, ≤ 0.25.
Then AHDY, with ≤ 0.25.
Turning to VEHC, the enrichment ratio is ≤ 0.25.
Then YHSQ, with ≤ 0.25; and MTCC, with ≤ 0.25; and PSYG, with ≤ 0.25.
To TVGH belongs 4.06; to TTND, 4.14.
On to KYMD, for which the enrichment ratio was ≤ 0.25.
Take APCT: the enrichment ratio is ≤ 0.25.
Regarding NYQD, the enrichment ratio is ≤ 0.25.
For the variant LSGR, the enrichment ratio is ≤ 0.25.
Then WMLR, with ≤ 0.25; and NLWV, with ≤ 0.25.
Then YILW, with ≤ 0.25; and KSIY, with ≤ 0.25.
With RVVS, the enrichment ratio is ≤ 0.25.
To WVPF belongs ≤ 0.25.
To FNVL belongs 0.562; to GTGD, ≤ 0.25; to YEID, ≤ 0.25.
To DAWR belongs ≤ 0.25.
Turning to ILLA, the enrichment ratio was ≤ 0.25.
As for SRTG, the enrichment ratio is ≤ 0.25.
For QMQG, the enrichment ratio is ≤ 0.25.
As to DLVS, the enrichment ratio is ≤ 0.25.
FTDT: the enrichment ratio was ≤ 0.25.
Regarding QGQP, the enrichment ratio is ≤ 0.25.
Then FTDF, with ≤ 0.25; and LQCT, with ≤ 0.25.
Then YAPH, with ≤ 0.25; and NRVP, with ≤ 0.25; and VQTF, with ≤ 0.25.
With GFQE, the enrichment ratio was ≤ 0.25.
With RVNY, the enrichment ratio was ≤ 0.25.
Then PPII, with ≤ 0.25.
To ATDY belongs ≤ 0.25; to GYSV, ≤ 0.25; to PYTS, ≤ 0.25.
Then KYNC, with ≤ 0.25; and SSFG, with ≤ 0.25.
Regarding WPSV, the enrichment ratio is ≤ 0.25.
Then VARF, with ≤ 0.25; and TGWF, with 0.819.
Then AHLD, with ≤ 0.25; and SEMN, with 4.75.
To ILEP belongs ≤ 0.25.
On to YDCM, for which the enrichment ratio was ≤ 0.25.
Consider ADDM, for which the enrichment ratio is ≤ 0.25.
For the variant VTAA, the enrichment ratio was ≤ 0.25.
Then KLRP, with ≤ 0.25; and GFWT, with ≤ 0.25; and EPAE, with ≤ 0.25.
In the case of FHIH, the enrichment ratio is ≤ 0.25.
On to KHYH, for which the enrichment ratio was ≤ 0.25.
Then PFDF, with ≤ 0.25; and IFVW, with ≤ 0.25; and TYTS, with 2.26.
Then SYTN, with ≤ 0.25; and SNMH, with 11.9.
With QHFN, the enrichment ratio is ≤ 0.25.
In the case of RAGC, the enrichment ratio is ≤ 0.25.
On to DENS, for which the enrichment ratio is ≤ 0.25.
Then NKHR, with ≤ 0.25; and GNCI, with 14.4; and FYWV, with ≤ 0.25.
Then KWLT, with ≤ 0.25; and VQRD, with ≤ 0.25.
Take LPPR: the enrichment ratio was ≤ 0.25.
As for WFMD, the enrichment ratio was ≤ 0.25.
As for QGAH, the enrichment ratio was 4.81.
As to PEMC, the enrichment ratio is ≤ 0.25.
To VEIL belongs ≤ 0.25.
To SFQY belongs ≤ 0.25; to LREV, ≤ 0.25.
Then DFYH, with ≤ 0.25.
Regarding HRYP, the enrichment ratio was ≤ 0.25.
On to GHCF, for which the enrichment ratio is ≤ 0.25.
Regarding DRFS, the enrichment ratio was ≤ 0.25.
To EMND belongs ≤ 0.25; to GHLK, ≤ 0.25.
To TQLR belongs 2.23.
As to RQND, the enrichment ratio was ≤ 0.25.
Then QTSF, with 4.47; and MNMV, with 8.01; and YIYP, with ≤ 0.25.
On to WLKI, for which the enrichment ratio was ≤ 0.25.
Consider HMAH, for which the enrichment ratio is ≤ 0.25.
As for KRKN, the enrichment ratio was ≤ 0.25.
With KYTI, the enrichment ratio was ≤ 0.25.
Then LNNL, with ≤ 0.25; and FKEY, with ≤ 0.25; and SSET, with 0.369.
With FAQI, the enrichment ratio is 0.326.
Then QWLT, with ≤ 0.25.
To HYSY belongs ≤ 0.25.
In the case of NPTY, the enrichment ratio is ≤ 0.25.
To NNND belongs ≤ 0.25; to DWRF, ≤ 0.25; to MSWK, ≤ 0.25.
Then RNMC, with ≤ 0.25; and ITFK, with ≤ 0.25.
On to ANDM, for which the enrichment ratio is ≤ 0.25.
As for LQVV, the enrichment ratio is ≤ 0.25.
To FWSV belongs ≤ 0.25.
Turning to KTVG, the enrichment ratio is ≤ 0.25.
For RSWQ, the enrichment ratio is ≤ 0.25.
Then KITL, with ≤ 0.25.
Then MFVG, with ≤ 0.25.
Then ARCC, with ≤ 0.25; and DYMR, with ≤ 0.25; and YLNF, with ≤ 0.25.
Consider FESL, for which the enrichment ratio is ≤ 0.25.
On to VIQR, for which the enrichment ratio was ≤ 0.25.
Then DACH, with ≤ 0.25.
Then AARE, with ≤ 0.25.
For the variant SYHI, the enrichment ratio is ≤ 0.25.
Then FFAG, with ≤ 0.25; and PEKI, with ≤ 0.25; and NFVN, with ≤ 0.25.
To HWDP belongs ≤ 0.25.
To EHHQ belongs ≤ 0.25; to AMVV, 9.7.
Turning to LCDL, the enrichment ratio is ≤ 0.25.
Turning to FVRW, the enrichment ratio was ≤ 0.25.
To DANN belongs ≤ 0.25; to VKYM, ≤ 0.25.
Then ALIQ, with ≤ 0.25; and LVQF, with ≤ 0.25.
To GAIY belongs ≤ 0.25; to IFTD, ≤ 0.25.
As to SMKR, the enrichment ratio was ≤ 0.25.
With DLYT, the enrichment ratio is ≤ 0.25.
For the variant ECAF, the enrichment ratio was ≤ 0.25.
Then SVSK, with 12.7; and HGYH, with ≤ 0.25; and KHGP, with ≤ 0.25.
As for VHPD, the enrichment ratio is ≤ 0.25.
Turning to GIDK, the enrichment ratio is ≤ 0.25.
On to TEDI, for which the enrichment ratio is ≤ 0.25.
Take ARLF: the enrichment ratio worked out at 1.96.
On to AQMC, for which the enrichment ratio was 2.48.
Take PWTQ: the enrichment ratio was ≤ 0.25.
In the case of QPLM, the enrichment ratio was ≤ 0.25.
As to NRVA, the enrichment ratio is ≤ 0.25.
With AHTE, the enrichment ratio is ≤ 0.25.
Then APIM, with ≤ 0.25; and NMVR, with ≤ 0.25.
In the case of FHFE, the enrichment ratio is ≤ 0.25.
To ENNS belongs ≤ 0.25; to VHTY, ≤ 0.25; to RVAL, ≤ 0.25.
For the variant VEPK, the enrichment ratio was ≤ 0.25.
Then QGSI, with 8.26.
In the case of MEWY, the enrichment ratio was determined as 6.15.
As to NVII, the enrichment ratio was ≤ 0.25.
Then QLQL, with ≤ 0.25; and SNYH, with ≤ 0.25; and LELG, with 8.
To WFAP belongs ≤ 0.25.
To YRWS belongs ≤ 0.25.
As to DLGI, the enrichment ratio is ≤ 0.25.
For TDET, the enrichment ratio is ≤ 0.25.
For QMQR, the enrichment ratio is ≤ 0.25.
For DGWA, the enrichment ratio is ≤ 0.25.
For WAFY, the enrichment ratio is ≤ 0.25.
Consider RRHE, for which the enrichment ratio is ≤ 0.25.
To GLIN belongs ≤ 0.25; to KTEP, ≤ 0.25; to VFYW, ≤ 0.25.
Then KKVC, with ≤ 0.25.
Then SWAV, with ≤ 0.25; and MCNF, with ≤ 0.25.
EYVW: the enrichment ratio was ≤ 0.25.
Turning to YECG, the enrichment ratio was found to be 7.36.
To FMRI belongs ≤ 0.25.
To LFGP belongs ≤ 0.25.
Regarding RVIF, the enrichment ratio is ≤ 0.25.
Then SIRK, with ≤ 0.25.
Then NRRE, with ≤ 0.25.
Turning to QMWI, the enrichment ratio was ≤ 0.25.
To LRPI belongs ≤ 0.25; to DPTL, ≤ 0.25.
Then WRQI, with ≤ 0.25.
Then MMQG, with ≤ 0.25; and KTSL, with ≤ 0.25; and SDVR, with ≤ 0.25.
Turning to PETS, the enrichment ratio was ≤ 0.25.
PIHQ: the enrichment ratio is ≤ 0.25.
Take KLEK: the enrichment ratio is ≤ 0.25.
Then GARE, with ≤ 0.25.
To KLQL belongs ≤ 0.25; to HSLA, ≤ 0.25.
To YWFT belongs ≤ 0.25; to ARPT, ≤ 0.25.
On to PMPV, for which the enrichment ratio is ≤ 0.25.
Then RRDI, with ≤ 0.25; and VLDL, with ≤ 0.25.
Regarding PQGL, the enrichment ratio was ≤ 0.25.
To WPAK belongs ≤ 0.25; to IDEM, ≤ 0.25; to YVRT, ≤ 0.25.
Then LEQP, with ≤ 0.25; and PDLT, with ≤ 0.25; and RHDH, with ≤ 0.25.
Regarding RWWC, the enrichment ratio is ≤ 0.25.
In the case of TECC, the enrichment ratio stood at 30.
To AYKM belongs ≤ 0.25; to IHMQ, ≤ 0.25; to HYMI, ≤ 0.25.
With MYNG, the enrichment ratio was ≤ 0.25.
With RLIC, the enrichment ratio was ≤ 0.25.
As for KFSA, the enrichment ratio is ≤ 0.25.
IHDM: the enrichment ratio was ≤ 0.25.
To DNLL belongs ≤ 0.25; to RSEE, ≤ 0.25; to FKFL, ≤ 0.25.
For NICR, the enrichment ratio is ≤ 0.25.
To ADGC belongs ≤ 0.25; to DIQW, ≤ 0.25; to LACA, ≤ 0.25.
To NYHE belongs ≤ 0.25.
To IVKT belongs ≤ 0.25; to LQLW, ≤ 0.25.
Consider LTNY, for which the enrichment ratio was ≤ 0.25.
For the variant GYFF, the enrichment ratio is ≤ 0.25.
FQGE: the enrichment ratio is ≤ 0.25.
Then RSHQ, with ≤ 0.25.
On to VPKT, for which the enrichment ratio was ≤ 0.25.
As for MCVF, the enrichment ratio was ≤ 0.25.
For RCGS, the enrichment ratio is ≤ 0.25.
Then VENA, with ≤ 0.25; and APYY, with ≤ 0.25; and TLIH, with ≤ 0.25.
Then DPKP, with ≤ 0.25; and NWYR, with ≤ 0.25.
For the variant RING, the enrichment ratio is ≤ 0.25.
Then HQWI, with ≤ 0.25.
For the variant DKFK, the enrichment ratio is ≤ 0.25.
Regarding STKW, the enrichment ratio is ≤ 0.25.
Then PVGT, with ≤ 0.25.
VPPL: the enrichment ratio was ≤ 0.25.
To PRIP belongs ≤ 0.25; to SCLA, 11.8; to ARAA, ≤ 0.25.
As to AGIN, the enrichment ratio was ≤ 0.25.
Then GILH, with 5.92; and QFHL, with ≤ 0.25.
Turning to STKT, the enrichment ratio is ≤ 0.25.
Then LESN, with ≤ 0.25; and WVCI, with ≤ 0.25; and KPHN, with ≤ 0.25.
Then ADVL, with 3.21.
Consider LSQH, for which the enrichment ratio is ≤ 0.25.
Take AYRA: the enrichment ratio is ≤ 0.25.
To TFNL belongs 0.993.
With IPDV, the enrichment ratio is ≤ 0.25.
To WQWF belongs ≤ 0.25.
